According to PubChem BioAssay AID995 (National Center for Advancing Translational Sciences (NCATS), 2007):
Screen size: about 72,000 compounds; about 710 (0.99%) were called active. The inconclusive results got no clear call from the source; some entries with a clear call stand among them for comparison. Calls come from the whole dose curve; as a rule, active = well fitted inhibition curve with a large enough effect; inconclusive = small, poorly fitted or top-dose-only effect; inactive = no such curve, though single readings can be large or run the other way. No potency is given beside an inconclusive call; the fits are too rough.

Experiment: qHTS Assay for Inhibitors of the ERK Signaling Pathway using a Homogeneous Screening Assay; note: nearly all actives have a fitted effect of over 55% in size
Conditions: HEK293-V1b, vasopressin-stimulated pERK AlphaScreen; activity, negative = inhibition: at 57.5 µM (top of the series) unless noted
Outline: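 qHTS, compounds titrated on V1b-expressing HEK293 cells. Preincubation 30 min at 37C, vasopressin 25 nM for 5 min, lysis 10 min, bead incubation 5 hr at room temperature.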
% is set by controls: 0 for no effect and ±100 for the full control effect; potency is the fitted concentration of half-maximal effect; tags give direction and shape of the fitted curve.

SMILES | activity, negative = inhibition | Potency
CC(C)CC1OCCC=CC1C (configuration not stated) | inactive: 31.6% [at 11.5 µM] | 
FC(F)(F)c1ccc(CN2C[C@@H]3C(c4ccc(C(F)(F)F)cc4)C4(c5ccccc5)CC3(C4)[C@H]2c2ccccc2)cc1 (some centres not stated) |  | inactive
COc1ccc(-n2c(Cc3cccn3C)nnc2SCC(=O)Nc2ccc(F)cc2F)cc1 |  | inconclusive [inhibitor, partial curve]
CCN(CC)CCNc1ccc(CO)c2sc3ccccc3c(=O)c12 |  | inactive
COc1ccc2[nH]cc(C(=O)CN3CCN(C/C=C/c4ccccc4)CC3)c2c1 |  | inconclusive [inhibitor, partial curve]
CCOc1ccc2nc3cc(N)ccc3c(N)c2c1 |  | inconclusive [inhibitor, single point]
Cc1ccc(S(=O)(=O)N2CCCC2C(=O)NC2CCCCC2)cc1 (configuration not stated) |  | inconclusive [inhibitor, partial curve]
O=c1c(O)c(-c2ccc(O)c(O)c2)oc2ccccc12 |  | inconclusive [inhibitor, partial curve]
N#Cc1c(-c2cccs2)cc(-c2cccnc2)nc1N |  | inactive
O=C(C1CCN(S(=O)(=O)c2ccc3c(c2)OCCO3)CC1)N1CCc2ccccc21 |  | inconclusive [inhibitor, single point]
Cc1ccc2nc(NC(=O)C3CCN(S(=O)(=O)c4ccc5c(c4)oc(=O)n5C)CC3)sc2c1 |  | inconclusive [inhibitor, partial curve]
CNC(=O)C1CC(=O)N(c2ccc(C)cc2)C1 (configuration not stated) |  | inconclusive [inhibitor, full curve, poor fit]
CCN(c1cccc(C(F)(F)F)c1)S(=O)(=O)c1ccc2c(c1)CCN2C(=O)C1CC1 |  | inactive
CCOc1cccc(C(=O)Nc2nc(-c3ccc(S(=O)(=O)N4CCOCC4)cc3)cs2)c1 |  | inconclusive [inhibitor, partial curve]
CN(C)c1nc(NCc2ccccc2)nc(Oc2ccc(=O)[nH]n2)n1 |  | inactive
CCNc1ncc2nc(C)c(=O)n(CCC#N)c2n1 |  | inconclusive [inhibitor, partial curve]
Cc1nc(NCc2ccccc2)c2nc(-c3ccccc3)n(CCCN3CCOCC3)c2n1 |  | inconclusive [inhibitor, single point]
CC1CCC2C(=O)N3C(CCC(C)[C@@H]3c3ccc(-c4ccco4)cc3)C(=O)N2C1c1cccc(N2CCCC2=O)c1 (some centres not stated) | inactive: 22.3% [at 11.5 µM] | 
CN(Cc1ccco1)c1nc(-c2cccnc2)nc2ccccc12 |  | inconclusive [inhibitor, partial curve]
CCCc1nc2ccccc2c(C(=O)OCc2nnc(-c3cc(OC)c(OC)c(OC)c3)o2)c1CC |  | inconclusive [inhibitor, full curve]
CC(C)c1ccc2c(c1)CC[C@@H]1[C@@](C)(CN)CCC[C@]21C |  | inactive
COc1ccc(-c2nc3cnc(N4CCNCC4)nc3n(C)c2=O)cc1 |  | inactive
COC(=O)c1cc(OC)c(OC)cc1-n1cnc2cc(OC)c(OC)cc2c1=O |  | inconclusive [inhibitor, full curve, poor fit]
COc1ccccc1NC(=O)c1sc2nc(-c3ccco3)ccc2c1N |  | inactive

SMILES | activity, negative = inhibition | Potency
O=C(CSc1nc(-c2ccc(F)cc2)cs1)N1CCN(C(=O)c2ccco2)CC1 | inconclusive: -33.9% [inhibitor] | 
Cc1cc(C)nc(SC2=CS(=O)(=O)c3ccccc32)n1 |  | inactive
CC1(C)Cc2c(sc3nc(SCC(=O)O)[nH]c(=O)c23)CO1 |  | inactive
O=C(Nc1cccc2nsnc12)c1ccc2c(c1)OCCO2 |  | inactive
c1csc(-c2ncc3ccccn23)c1 |  | inactive
COc1ccc(OCc2nnc(SC(C)C(=O)Nc3nccs3)n2-c2ccccc2)cc1 (configuration not stated) |  | inconclusive [inhibitor, single point]
CCOc1cc(NC(=O)c2ccco2)c(OCC)cc1NC(=O)Cc1cccc(OC)c1 |  | inactive
Cc1ccc(-c2cc3c(nn2)-c2ccccc2C3=O)cc1 |  | inconclusive [inhibitor, partial curve]
O=C(NCC(c1cccnc1)N1CCN(c2ccccc2F)CC1)C1CCCCC1 (configuration not stated) |  | inconclusive [inhibitor, partial curve]
COc1ccc(OCc2cccc(C(=O)O)c2)cc1 |  | inactive
COCCCN1CN(S(=O)(=O)c2ccc(Cl)cc2)c2nc3ccccc3nc21 |  | inconclusive [inhibitor, partial curve]
CCCn1c(C)nc2c(NCCCN(CC)CC)nc(C)nc21 |  | inactive
COc1cc2c(CCNC(C)=O)c[nH]c2cc1Cl |  | inconclusive [inhibitor, single point]
COC(=O)c1ccc2c(=O)n(CC3CCCO3)c(=S)[nH]c2c1 (configuration not stated) |  | inconclusive [inhibitor, single point]
CCCCn1c(SCc2nnc(-c3ccccc3)o2)nc2c1c(=O)n(C)c(=O)n2C |  | inconclusive [inhibitor, partial curve, poor fit]
CCOC(=O)c1c(NC(N)=O)sc(C)c1C |  | inconclusive [inhibitor, partial curve]
O=C(COc1ccc(Cl)cc1)Nc1nc(-c2cccs2)cs1 |  | active: 25.1 µM
O=c1c(-c2cccc(Cl)c2)nc2cncnc2n1-c1ccccc1 |  | inconclusive [inhibitor, full curve, poor fit]
CCOc1ccc(NC(=O)N(C2CCCCC2)C2CCN(C(C)=O)CC2)cc1 |  | inconclusive [inhibitor, partial curve]
COc1ccc(NC(=O)c2nnn(Cc3cccc(F)c3)c2N)c(OC)c1 |  | inactive
COc1ccc(CCNc2nc(C)nc3c2oc2ccccc23)cc1OC |  | active: 12.6 µM
COc1ccc(-c2cnn(-c3ccccc3)c2N)cc1OC |  | inactive
O=c1c2ccccc2nc(SCc2cn3ccsc3n2)n1-c1ccc(F)cc1 |  | inconclusive [inhibitor, partial curve]
